Laboratory results published in PubChem BioAssay AID493208 (National Center for Advancing Translational Sciences (NCATS), 2011).
Hit rate of the full screen: of about 44,000 compounds, about 340 (0.77%) were called active. Roughly 5% stayed inconclusive and do not appear here. Calls come from the whole dose curve; as a rule, active = well fitted inhibition curve with a large enough effect; inconclusive = small, poorly fitted or top-dose-only effect; inactive = flat fitted curve, though single readings scatter. The list shows a part of the results.

Test: Acumen qHTS Assay for Inhibitors of the mTORC1 Signaling Pathway in MEF (Tsc2-/-, p53-/-) Cells: Sytravon; note: nearly all actives have a fitted effect of over 50% in size
Details: phospho-rpS6 immunofluorescence/PI, 24 h; series mostly up to 38.3 µM; activity change, negative = inhibition: at the top concentration
Excerpt: NIH Molecular Libraries Probe Production Centers Network [MLPCN] NIH Chemical Genomics Center [NCGC] MLPCN Grant: NS059428-01 Assay Submitter (PI): Blenis, John; Hoffman, Greg; Harvard University NCGC Assay Overview: The mammalian target of rapamycin (mTOR) is an intracellular serine/threonine kinase Aberrant regulation of mTOR signaling plays a causative role in a number of human diseases, including cancer, benign tumors such as lymphangioleiomyomatosis (LAM) and Tuberous Sclerosis Complex (TSC), and metabolic diseases such as diabetes and obesity. This project aims to identify inhibitors of ribosomal protein S6 (rpS6) phosphorylation. The phosphorylation of rpS6 is a key event downstream of mTOR activation. The assay uses a phospho-specific antibody of phospho-rpS6 to detect inhibitors of mTOR activation. Mutations in the Tsc1 and Tsc2 genes are the underlying genetic lesions responsible for TSC, causing constitutive activation of the mTORC1 pathway and leading to profound effects on cell metabolism. Aberrant metabolism in cancer has recently received significant attention as a target to develop therapeutic agents in the treatment of cancer.1 As Tsc2-/- cells have lost the ability to respond to energy and growth factor deprivation, these cells are unable to properly down regulate cellular biosynthetic processes in response to metabolic stress, and are thus extremely sensitive to glucose deprivation-induced death.2 A central goal of this project is to explore the unique cell survival and metabolic properties of cells with Tsc1 or Tsc2 by screening for compounds that selectively target the Tsc2-/- MEFs by screening both Tsc2-/- and WT MEF cell lines. We hope to better understand these aspects of TSC physiology in order to exploit them for therapeutic benefit.
NCGC Acumen Assay Protocol Summary: For quantitative high throughput analysis of mTORC1 signaling, we developed a cell-based assay for immuno-fluorescence based detection of rpS6 phosphorylation on the Acumen Explorer that will be used a platform for the primary small molecule screen. Mouse embryonic fibroblasts (MEFs) are cultured in 1536-well plates using DMEM + 10% FBS. Twenty-four hrs after plating, test compounds (solubilized in DMSO) are delivered and incubated with the cells for 24 hrs at 37 degree Celsius. Following the incubation, media with compound is aspirated and the cells are fixed in 4% paraformaldehyde (PFA) containing PBS + 0.2% TX-100. Next, PFA is aspirated, cells are washed two times with PBS plus 0.2% TX-100 and the cells are blocked for 1 hr at room temperature (blocking buffer: LiCOR Blocking Buffer plus 0.2% TX-100). […] Cells are washed two times with PBS plus 0.2% TX-100, and stained with 10 uM propidium iodide (PI) for 20-25 minutes for cell number measurement (1:500 dilution of Hoescht staining is also added for IN Cell imaging). The plates are scanned on the Acumen Explorer laser scanning instrument (TTP Labtech) using the 488nm laser for simultaneous excitation of the Alexa-488 and PI. […] The normalized phospho-S6 staining is calculated as the ratio of the integrated Alexa 488 intensity divided by the integrated PI intensity for the single concentration rapamycin control (7.5 nM) and DMSO columns. […] Inhibition of the pathway is defined based on the normalized phospho-S6 intensity in rapamycin treated cells. Active cells are defined as those with a normalized phospho-S6 staining above this threshold, and each treatment is reported as the % positive cells in the well, where thresholds are defined by selecting wells with the highest and lowest signal and differentiating between the % non-active and % active populations. In addition to the pathway specific phospho-S6 endpoint, the number of PI stained cells from the Acumen is recorded as a measure of cell viability. The primary screen was performed with a MEF cell line in a defined genetic background, Tsc2-/-, p53-/- cell line stably transfected with an empty vector control (Tsc2-/- MEF).
Potency is the fitted concentration of half-maximal effect.

| SMILES | activity change, negative = inhibition | Potency |
| --- | --- | --- |
| COc1ccc(Oc2nc3c(c(=O)n(C)c(=O)n3C)n2Cc2ccccc2Cl)cc1 | inactive: -4.41% | – |
| COc1ccccc1Cn1cc(C(=O)c2ccc(Cl)cc2)c(=O)c2cc3c(cc21)OCCO3 | inactive: -6.55% | – |
| CN1CCN(C(=O)c2ccc3c(c2)N(Cc2c(F)cccc2Cl)C(=O)c2ccccc2S3)CC1 | inactive: 2.85% | – |
| CCc1sc(Nc2ccc(Cl)cc2)nc1-c1cc2cccc(OC)c2oc1=O | inactive: -10.6% | – |
| Cc1cc(OCC(=O)Nc2cc(-c3nc4ccccc4[nH]3)ccc2C)ccc1Cl | – | active: 14.7 µM |
| CC(C(=O)Nc1ccc(F)c(Cl)c1)N1Cc2ccccc2C1=O (stereo not drawn) | inactive: -2.25% | – |
| COc1ccc(-c2noc(N3CCN(c4cccc(Cl)c4)CC3)n2)cc1OC | inactive: -0.954% | – |
| CCOc1ccc(C(=O)CSc2nnc3cc(C)c4ccccc4n23)cc1 | inactive: -1.7% | – |
| Cc1ccccc1C(=O)Nc1nnc(SCc2cc(=O)n3ccccc3n2)s1 | inactive: 3.89% | – |
| COc1ccccc1CNC(=O)COc1cc(=O)n(C)c2ccccc12 | inactive: 1.34% | – |
| CCOc1cc(C(=O)Nc2nnc3n2CCS3)cc(OCC)c1OCC | inactive: -8.11% | – |
| CCCCC(CC)CNC(=O)c1ccc2c(=O)n(CCOC)c(=O)[nH]c2c1 (stereo not drawn) | inactive: -0.455% | – |
| CC(=O)c1cccc(S(=O)(=O)N2CCN(c3ccccc3F)CC2)c1 | inactive: -9.65% | – |
| Cc1ccc(N(CC(=O)NCC(C)c2ccccc2)S(=O)(=O)N(C)C)cc1 (stereo not drawn) | inactive: -5.3% | – |
| COc1ccccc1N1CCN(C(=O)c2cnn(-c3ccc(C)c(C)c3)c2C2CCN(C(=O)OC(C)(C)C)CC2)CC1 | inactive: -7.9% | – |
| Cc1ccc(N2CCN(C(=O)NCc3noc4ccccc34)CC2C)cc1 (stereo not drawn) | inactive: -14.5% | – |
| Cc1cccc(C(=O)Nc2ccc(-c3nc4cc(C(C)C)ccc4o3)cc2)c1 | inactive: 18.1% | – |
| COc1ccc(S(=O)(=O)n2nc(C)c(S(=O)(=O)N3CCCCCC3)c2C)cc1OC | inactive: 5.71% | – |
| CCOC(=O)c1c(C)oc2ncnc(NCCCN3CCN(c4cc(C)ccc4C)CC3)c12 | inactive: -2.38% | – |
| COc1ccc(-c2c3c(nc4sc(C(=O)Nc5ccc(F)cc5)c(N)c24)CC(C)(C)CC3=O)cc1 | inactive: -18.9% | – |
| CCCOc1ccc(C(=O)N(Cc2cccs2)c2ccc(C)cc2)cc1 | inactive: -2.41% | – |
| COc1ccc(Cl)cc1S(=O)(=O)N1CCN(Cc2cccc(F)c2)CC1 | inactive: -3.05% | – |
| CCOC(=O)c1ccc(NC(=O)C2CCN(C(=O)N3CC(C)Oc4ccc(C)cc43)CC2)cc1 (stereo not drawn) | inactive: 3.32% | – |
| O=S(=O)(NCCc1csc2nc(-c3ccc(Cl)cc3)nn12)c1ccc(Oc2ccccc2)cc1 | inactive: 0.827% | – |

| SMILES | activity change, negative = inhibition | Potency |
| --- | --- | --- |
| CC(=O)c1cccc(NC(=O)CSc2nnc3ccc(-c4ccc(C)cc4)nn23)c1 | inactive: 5.83% | – |
| Cc1cc2nc(-c3ccc(Cl)cc3)cc(C(F)(F)F)n2n1 | inactive: -1.77% | – |
| Cc1ccccc1-c1nc(C(N)=O)c2c(n1)n(-c1ccc3c(c1)OCO3)c(=O)n2C | inactive: -4.73% | – |
| CN(C)S(=O)(=O)c1ccc2c(c1)N(CC(=O)NCc1cccc(Br)c1)C(=O)CS2 | inactive: -3.22% | – |
| Cc1ccc(-c2nnc(NC(=O)c3ccc4c(c3)OCCO4)o2)c(C)c1 | inactive: 2.58% | – |
| Cc1cc2c(cc1S(=O)(=O)CCC(=O)NC1CCC(C)CC1)OCC(=O)N2 (stereo not drawn) | inactive: -8.6% | – |
| COc1ccccc1-c1nnc2n(CCc3ccccc3)c(=O)c3ccccc3n12 | inactive: 2.38% | – |
| O=C1CC(c2nnc(Cc3ccc(Cl)cc3)o2)CN1c1ccccc1 (stereo not drawn) | inactive: 2.86% | – |
| O=c1cc2nc(-c3cccs3)nc(SCCOc3ccc(Cl)cc3)n2[nH]1 | inactive: 7.59% | – |
| CCn1c(=N)c(C(=O)NC2CCCCC2)cc2c(=O)n3cccc(C)c3nc21 | inactive: 1.49% | – |
| Cc1ccc(C)c(Cn2c(=O)n(Cc3ccc(C(=O)NC4CCN(Cc5ccccc5)CC4)cc3)c(=O)c3ccccc32)c1 | inactive: -5.34% | – |
| Cc1ccc(O)c(NC(=O)c2noc3c2CCCCC3)c1 | inactive: -14% | – |
| COc1cccc(-n2cc(C(=O)Oc3cccc(C(F)(F)F)c3)c3ccccc3c2=O)c1 | inactive: -14.2% | – |
| O=C(CC1C(=O)N(c2ccc(F)cc2)C(=O)N1Cc1ccc2c(c1)OCO2)Nc1ccc(F)cc1 (stereo not drawn) | inactive: -1.45% | – |
| CC(=O)N1c2ccccc2CC1C(=O)N1CCN(c2cccc(Cl)c2)CC1 (stereo not drawn) | inactive: 13.2% | – |
| COc1cccc(CNC(=O)CN2C(=O)CCCc3ccccc32)c1OC | inactive: -3.53% | – |
| CCOc1ccc(OCC)c(NC(=O)C(NS(=O)(=O)c2ccc(Br)s2)c2ccccc2)c1 (stereo not drawn) | inactive: -18.9% | – |
| Cc1ccc(C)c(CN2C(=O)c3ccccc3S(=O)(=O)c3ccc(C(=O)N4CCCC4)cc32)c1 | inactive: -4.06% | – |
| CCOC(=O)c1cnc2c(C)cccc2c1NCCc1ccc(OC)c(OC)c1 | inactive: -6.63% | – |
| CCc1ccc(NC(=O)c2ccc3oc(=O)n(Cc4ccccc4)c3c2)cc1 | inactive: 12% | – |
| Nc1c(-c2nc(-c3cccs3)no2)nnn1-c1cccc(F)c1 | inactive: -7.73% | – |
| CCN(c1ncnc2c1cnn2-c1cc(Cl)ccc1C)C1CCCCC1 | inactive: -13.8% | – |
| CCc1sc(Nc2ccc(C)cc2Br)nc1-c1cc2cccc(OC)c2oc1=O | inactive: 0.464% | – |
| CCOC(=O)CSc1nc2c(sc3ccccc32)c(=O)n1Cc1ccc(C)cc1 | inactive: 0.028% | – |
